Data taken from PubChem BioAssay (NCATS).
Inconclusive results, whose numbers are uncertain, are shown with a selection of clear calls. No potency is given beside an inconclusive call; the fits are too rough. The source made the active and inactive calls. Calls come from the whole dose curve; as a rule, active = well fitted curve in the direction sought with a large enough effect; inconclusive = small, poorly fitted or top-dose-only effect, or another doubt; inactive = no such curve, though single readings can be large; an effect the other way counts as inactive or inconclusive.

Tested on: not listed separately
Assay: Primary qHTS for inhibitors of La Crosse Virus (LACV) - induced cell death in SH-SY5Y cells (AID 1508616)
Conditions: SH-SY5Y LACV cytopathicity rescue, ATP luminescence, 6 d; series mostly up to 4.29 µM
Summary of the method: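 Cytopathicity rescue screen: compounds pinned onto SH-SY5Y cells, which are then infected with LACV (MOI 0.01) and held 6 days at 37C. Percent activity is scaled between infected DMSO control and uninfected DMSO control.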
Potency is the fitted concentration of half-maximal effect; tags give direction and shape of the fitted curve.

SMILES | Potency
COC(=O)[C@@H](N)CCCN/C(N)=N/[N+](=O)[O-] | inactive
COc1ccc2c3c1O[C@H]1[C@@H](O)C=C[C@H]4[C@@H](C2)N(C)CC[C@@]341 | inconclusive [inhibitor, single point]
CC(Cc1ccc(O)cc1)NCC(O)c1cc(O)cc(O)c1 (centres undefined) | inconclusive [inhibitor, full curve]
ClCc1cccc(Cl)c1 | inactive
C[C@]12CC[C@H]3[C@@H](CCC4=CC(=O)CC[C@@]43C)[C@@H]1CC[C@@H]2C(=O)O | inactive
C[N+]1(CCC(C(N)=O)(c2ccccc2)c2ccccc2)CCCCC1 | inactive
C[CH2][Hg][S]c1ccccc1C(=O)O | inconclusive [inhibitor, partial curve, poor fit]
C=CCC1([C@H](C)CCC)C(=O)NC(=O)NC1=O | inactive
C[N+](C)(C)CCOC(=O)C(O)(c1ccccc1)c1ccccc1 | inactive
CC(C)=CC1C(C(=O)OCN2C(=O)C3=C(CCCC3)C2=O)C1(C)C (centres undefined) | inconclusive [inhibitor, partial curve]
NCCc1cc(O)c(O)cc1O | inactive
C/C=C(/C)C(=O)O[C@H]1C(C)=C2[C@H]([C@@H]1OC(=O)CCCCCCC)[C@@](C)(OC(C)=O)C[C@H](OC(=O)CCC)[C@@]1(O)[C@H]2OC(=O)[C@@]1(C)O | inconclusive [inhibitor, partial curve, poor fit]
COc1ccc2c(c[n+](C)c3c4cc5c(cc4ccc23)OCO5)c1OC | inconclusive [inhibitor, single point]
c1ccc2nc(N3CCNCC3)ccc2c1 | inconclusive [inhibitor, full curve]
CCN(CC)C(=O)N[C@@H]1C=C2c3cccc4[nH]cc(c34)C[C@@H]2N(C)C1 | inconclusive [inhibitor, partial curve]
CN(N=O)c1cc(O)ccc1O | inconclusive [inhibitor, partial curve]
COc1ccc(C(c2ccc(OC)cc2)C(Cl)(Cl)Cl)cc1 | inconclusive [inhibitor, full curve]
CC(C)(C)NC[C@H](O)c1ccc(O)cc1Cl | inactive
CN1CC[C@]23c4c5ccc(O)c4O[C@H]2[C@@H](O)C=C[C@H]3[C@H]1C5 | inconclusive [inhibitor, single point]
CCN(CC)C(=O)[C@@H]1C=C2c3cccc4[nH]cc(c34)C[C@H]2N(C)C1 | inconclusive [inhibitor, partial curve, poor fit]
Nc1ccccc1 | inactive

Target: Calcium and integrin-binding protein 1 (Homo sapiens) (UniProt Q99828)
Sequence of UniProt Q99828 (Q99828 whole entry, looked up): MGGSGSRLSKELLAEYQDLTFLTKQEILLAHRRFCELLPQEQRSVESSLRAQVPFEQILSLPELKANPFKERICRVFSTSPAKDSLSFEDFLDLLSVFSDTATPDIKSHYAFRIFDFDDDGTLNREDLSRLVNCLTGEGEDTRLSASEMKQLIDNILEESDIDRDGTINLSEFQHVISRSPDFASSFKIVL
Assay: Confirmatory qHTS for Identification of Calcium Integrin Binding Protein 1 (CIB1) Competitor (AID 1508617); note: nearly all actives have a fitted effect of over 65% in size
Conditions: CIB1 binding competition assay, biochemical qHTS; series mostly up to 228 µM
Summary of the method: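 FP competition: CIB1-GST (1 uM final) in 5 mM HEPES pH 7.4, 125 mM NaCl, 5 mM CaCl2, 0.01% Tween20 preincubated 15 min RT with compounds (up to 114 uM), then FITC-alphaIIb peptide (100 nM), 15 min RT; Ex 480/Em 540.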

SMILES | Potency
N[C@@H](Cc1ccc(Oc2cc(I)c(O)c(I)c2)c(I)c1)C(=O)O | inconclusive [inhibitor, full curve]
COc1nn(CSP(=S)(OC)OC)c(=O)s1 | inconclusive [inhibitor, full curve]
C[CH2][Hg][S]c1ccccc1C(=O)O | inconclusive [inhibitor, full curve]
O=C1C(I)=CC(=C(c2cc(I)c(O)c(I)c2)c2ccccc2C(=O)O)C=C1I | inconclusive [inhibitor, full curve]
C=C1[C@@H](C)[C@H]2[C@H](Cc3ccccc3)NC(=O)[C@]23OC(=O)/C=C/C(=O)CCC[C@@H](C)C/C=C/[C@H]3[C@@H]1O | active: 10 µM
COc1ccc2c(c[n+](C)c3c4cc5c(cc4ccc23)OCO5)c1OC | inconclusive [inhibitor, full curve, poor fit]
COC[C@H]1OC(=O)c2coc3c2[C@@]1(C)C1=C(C3=O)C2CCC(=O)[C@@]2(C)C[C@H]1OC(C)=O (some centres undefined) | inconclusive [inhibitor, full curve]
CC(C)Oc1cccc(NC(=O)c2ccccc2C(F)(F)F)c1 | inactive
O=c1oc2ccccc2c(O)c1C(CC(O)c1ccc(-c2ccc(Br)cc2)cc1)c1ccccc1 (centres undefined) | inconclusive [inhibitor, full curve]
CC(C)=CCC[C@]1(C)C=Cc2c(O)c3c(c(CC=C(C)C)c2O1)O[C@]12C(=C[C@@H]4CC1C(C)(C)O[C@@]2(C/C=C(/C)C(=O)O)C4=O)C3=O | inconclusive [inhibitor, full curve]
COC(=O)C12C(=O)C(C)(O)C(=O)C1(C)C(C)=CC1C34CCC(OC3=O)C(C)(CO)C4CCC12C (centres undefined) | inconclusive [inhibitor, partial curve]

Target: Calcium and integrin-binding protein 1 (Homo sapiens) (UniProt Q99828)
Assay: Validation qHTS for Identification of Calcium Integrin Binding protein 1 (CIB1) Competitor (AID 1508618)
Conditions: CIB1-GST / FITC-alphaIIb peptide fluorescence polarization; series mostly up to 114 µM
Summary of the method: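 Fluorescence polarization with 1 uM CIB1-GST and 100 nM FITC-alphaIIb peptide in HEPES pH 7.4, NaCl, 5 mM CaCl2, Tween20. Compounds at up to 114 uM final, preincubated with protein 15 min; read after 15 min more at RT.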

SMILES | Potency
COc1ccccc1N1CCNCC1 | inactive
CN1C[C@H](CNC(=O)OCc2ccccc2)C[C@@H]2c3cccc4c3c(cn4C)C[C@H]21 | active: 44.7 µM
COc1ccc2c(c[n+](C)c3c4cc5c(cc4ccc23)OCO5)c1OC | inconclusive [inhibitor, partial curve, poor fit]
NC(N)=Nc1ccc2[nH]c3c(c2c1)C[C@@]1(O)[C@H]2Cc4ccc(O)c5c4[C@@]1(CCN2CC1CC1)[C@H]3O5 | inactive
C#CCN[C@H](C)Cc1ccccc1 | inactive
CC[C@@H](CO)NC(=O)[C@@H]1C=C2c3cccc4c3c(cn4C)C[C@H]2N(C)C1 | active: 44.7 µM
CN(N=O)c1cc(O)ccc1O | inconclusive [inhibitor, partial curve]
